According to PubChem BioAssay AID662 (National Center for Advancing Translational Sciences (NCATS), 2007):
Hit rate of the full screen: of about 71,000 compounds, about 1,800 (2.5%) were called active. The shares of active, inactive and inconclusive entries below differ from those in the screen. The call rests on the fitted dose curve; in most records, active means well fitted activation curve with a large enough effect in the signal ratio, with a control signal flat (not every such curve was filed as active); inconclusive means small, poorly fitted or top-dose-only effect, or effect the other way, or a change in a side signal; inactive means flat fitted curve, though single readings scatter; the % refers to the signal ratio. Potencies beside an inconclusive call are fits to weak or partial responses and may not hold up.

Test: Cell signaling CRE-BLA (Fsk stim); on activity change, negative = inhibition: % of control where 0% means no effect
Conditions: CHO CRE-bla reporter (cAMP response element driving beta-lactamase), forskolin EC10, beta-lactamase ratio; activity change, negative = inhibition: at 38.2 µM (top of the series) unless noted
Procedure, shortened: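 AC50 values, positive or negative, reflect shifts in EC10 NKH 477-induced CRE-bla reporter activity in CHO cells. Incubation lasted 3 h at 37 °C before CCF4 substrate (2 h, room temperature) and ratiometric 460/530 nm reading.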
Potency means the concentration at half of the fitted maximal effect; tags describe the fitted curve by direction and shape.

SMILES	activity change, negative = inhibition	Potency
CCSC1(SCC)N=C(N)C2(C#N)C(c3ccc(OC)c(OC)c3OC)C12C#N (centres undefined)	inconclusive: -29%	
Cc1ccccc1OCC(=O)Nc1ccc(N2CCN(C(=O)C(C)C)CC2)c(Cl)c1	inconclusive: -28.6%	
CCC(=O)Nc1cc(C(=O)NCC2CCCN2CC)c(OC)cc1N(C)C (centres undefined)	inactive	
CN(C)C(=O)c1ccc(-c2nc(N(C)Cc3ccco3)c3ccccc3n2)cc1		inconclusive: 12.6 µM [rising, partial curve]
c1ccc(-c2nnc(CSc3nncs3)o2)cc1	inconclusive: 21.3%	
CC(C)C[C@@H](CC(=O)N[C@H](CC(=O)N[C@@H]1CCCC[C@H]1C(=O)N[C@H](CC(=O)N[C@@H](CCC(=O)O)CC(=O)O)CC(C)C)C(C)C)NC(=O)[C@@H]1CCCC[C@H]1N	inconclusive: -12.3%	
Cc1cccc(CNc2cc(-c3ccccc3CN(C)C)ncn2)c1	inactive	
CCOC(=O)c1c(C)oc2cc(Br)c(OC)cc12		inconclusive: 12.6 µM [rising, single point]
COCc1cc(C)n(CC(=O)NC(C)c2ccccc2)c(=O)c1C#N (centres undefined)	inactive	
Cc1ccc(C)c(Cn2c(C(C)O)nc3ccccc32)c1 (centres undefined)	inactive	
c1ccc2c(c1)NC1(CCCC1)n1c-2nc2ccccc21	inactive	
O=C(Nc1ccon1)c1csc2c1CCCC2	inactive	
CCOC(=O)CSc1nnc(CNC(=O)c2ccc(OC)cc2)n1C1CCCCC1	inconclusive: 10.5%	
COc1ccc2nc(N3CCC(C)CC3)c(C#N)cc2c1		inconclusive: 12.6 µM [rising, partial curve]
CCOC(=O)N1CCN(C(=O)c2cccc(-n3c(=S)[nH]c4cc(Cl)ccc4c3=O)c2)CC1	inconclusive: 28.8%	
NC(=O)c1ccc(Br)c(S(=O)(=O)N2CCCCC2)c1	inconclusive: 7.68% [at 7.6 µM]	
COc1ccc(-n2c(=O)c(-c3ccc(Cl)cc3)nc3cncnc32)cc1	inconclusive: 0.795%	
COCCNC(=O)CN(CC1CCCO1)C(=O)CCC(=O)Nc1ccccn1 (centres undefined)	inactive	
CC(=O)Oc1ccc(N2C(=O)CC(N3CCOCC3)C2=O)cc1 (centres undefined)	inconclusive: 34.9% [at 7.6 µM]	
COc1ccc(C(C)=O)cc1COC(=O)c1cccc(N(C)C)c1		inconclusive: 12.6 µM [rising, partial curve]
CC1(C)CC(=O)C(Sc2nnc(-c3ccc(NS(C)(=O)=O)cc3)n2Cc2ccco2)C(=O)C1		inconclusive: 5.01 µM [falling, single point]
Cc1cc(C)nc(NS(=O)(=O)c2ccc(NC(=O)C3CC(=O)N(c4ccccc4)C3)cc2)n1 (centres undefined)	inconclusive: 4.14% [at 7.6 µM]	
CSC(=O)CC(=O)NC(=O)c1ccccc1	inconclusive: 13%	
Cc1c(C#N)c2ncn(Cc3ccccc3)c(=O)c2n1-c1ccccc1		inconclusive: 12.6 µM [rising, partial curve]
O=C(Nc1ccc(S(=O)(=O)N2CCCc3ccccc32)cc1)C1CCCO1 (centres undefined)	inconclusive: 22.7%	
O=C(NCCCN1CCOCC1)c1cccs1	inconclusive: -2.96%	
COc1ccc(-c2cc3nc(C4CCN(C(=O)OC(C)(C)C)CC4)c(C(=O)O)cn3n2)cc1		inconclusive: 6.31 µM [rising, partial curve]

SMILES	activity change, negative = inhibition	Potency
CN(C)CCCCN1CCc2c(n(C)c3ccccc23)C1=O	inactive: -3.14% [at 7.6 µM]	
Cc1ccc(-n2ncc3c(=O)[nH]c(SCC(=O)N4CCN(c5ccccc5)CC4)nc32)cc1	inconclusive: -15.1%	
CCOc1ccc(Cc2nc(C)c(CC(=O)N3CCCCC3)c(=O)[nH]2)cc1	inconclusive: -5.19%	
Cc1cc(=O)[nH]c(SCn2nnc3ccccc3c2=O)n1		inconclusive: 12.6 µM [rising, single point]
COC(=O)c1ccccc1NC(=O)c1ccccc1NS(C)(=O)=O		inconclusive: 10 µM [rising, partial curve]
O=C(O)CCCNS(=O)(=O)c1ccc(NCc2ccccc2)c(C(=O)O)c1	inactive	
CCOC(=O)C1=C(C)NC2=C(C(=O)c3ccccc32)C1c1cccnc1 (centres undefined)		inconclusive: 6.31 µM [rising, partial curve]
CC1(C)CC(=O)c2sc(N3CCCCC3)nc2C1	inconclusive: 11.6%	
COC(=O)c1ccc(NC(=O)CSc2nnc(-c3ccncc3)n2N)cc1	inconclusive: -0.485%	
COC(=O)COc1cc(C)cc2oc(=O)c(CC(=O)OC)c(C)c12		inconclusive: 12.6 µM [rising, partial curve]
CCOC(=O)N1CCC(NC(=O)CCN2C(=O)COc3ccccc32)CC1	inactive	
O=C(c1ccco1)N1CCC(c2nc(-c3ccc(F)cc3)no2)CC1		inconclusive: 12.6 µM [rising, single point]
O=S(=O)(Nc1nccs1)c1ccc(NS(=O)(=O)c2cccs2)cc1	inconclusive: 20.4%	
CCC1(c2ccccc2)NC(=O)N(CC(=O)Nc2ccc3c(c2)OCO3)C1=O (centres undefined)	inconclusive: -27.7%	
COc1ccc(C2C3=C(CCCC3=O)Nc3nc4ccccc4n32)c(OC)c1OC (centres undefined)	inactive	
COCCCNC(=O)CSc1nc2ccc(N3CCOCC3)cc2c(=O)n1CCc1ccccc1	inconclusive: 4.19%	
COc1ccc(-c2noc(-c3ccccc3C(=O)Nc3cccnc3)n2)cc1	inconclusive: -3.02%	
CCCc1noc(-c2ccc(-c3ccccc3)cc2)n1	inconclusive: -3.49%	
COc1cccc(-c2ccc3ncnc(NCc4cccs4)c3c2)c1	inconclusive: -29.5%	
c1ccc(-c2csc3nnc(SCc4ccc5c(c4)OCCO5)n23)cc1		inconclusive: 7.94 µM [rising, partial curve]
C/C(N)=C(\C#N)C(=O)NCCc1ccccn1	inconclusive: -3.2%	
Cn1c(=O)c2c(nc(CN3CCC(C(N)=O)CC3)n2Cc2c(F)cccc2Cl)n(C)c1=O		inconclusive: 10 µM [rising, partial curve, poor fit]
COc1ccc(C(C)=O)cc1CSc1nc2ccccc2o1		inconclusive: 12.6 µM [rising, partial curve]
Cc1ccc(C)c(C(=O)c2c(C)nc3sccn23)c1	inconclusive: 78.9%	
O=C(O)Cc1ccc(C(=O)c2cccs2)s1		inconclusive: 10 µM [falling, single point]
COCCn1c(=O)c(-c2ccc(Cl)cc2)nc2cnc(N(C)C)nc21		inconclusive: 1 µM [rising, partial curve]
CCOc1ccc(C(=O)N(CN2CCCC2=O)c2ccccc2)cc1		inconclusive: 0.631 µM [rising, single point]

SMILES	activity change, negative = inhibition	Potency
CC(C)NC(=O)CN(C(=O)CCC(=O)Nc1ccccn1)c1ccc(F)c(Cl)c1	inactive	
N#Cc1ccccc1NC(=O)c1ccccc1OCC(=O)NCc1ccco1	inconclusive: 0.753%	
COCCN(CCOC)Cc1c(C)[nH]c2c(C)c(C)ccc2c1=O	inactive	
CCOc1ccc(NC(=O)CSc2nnc(-c3ccccn3)n2N)cc1	inconclusive: 10.6%	
CC[C@@H]1OC(=O)[C@H](C)[C@H](O[C@@H]2C[C@](C)(OC)[C@H](O)[C@H](C)O2)[C@H](C)[C@H](O[C@@H]2O[C@@H](C)C[C@@H](N(C)C)[C@@H]2O)[C@](C)(O)C[C@H](C)C(=O)[C@H](C)[C@H](O)[C@]1(C)O	inactive	
Cc1nc(N2CCC3(CC2)OCCO3)c2nnn(Cc3ccccc3F)c2n1	inconclusive: 12.7%	
COC(=O)c1[nH]c2ccc(F)cc2c1NS(=O)(=O)c1ccc(OC)cc1OC	inactive	
Cc1c2cnccc2c(C)c2c1c1ccccc1n2CCOC(=O)c1ccccc1	inactive: 10.3% [at 7.6 µM]	
Cc1ccccc1Cc1c(C)nc2c(C(=O)NCc3ccco3)cnn2c1C	inconclusive: -25.7%	
Cc1cnc(N)c2c(=O)oc3ccccc3c12		active: 12.6 µM
CCN1C(=O)c2ccccc2S(=O)c2ccc(C(=O)NCc3ccccn3)cc21 (centres undefined)	inconclusive: 21.3%	
COCC(=O)NCc1ccc2c(c1)OCO2	inactive	
CC(C)OC(=O)CSc1nnc(Cc2ccccc2)n1Cc1ccco1	inactive	
COc1ccc(-c2noc(CCC(=O)Nc3cccnc3)n2)cc1OC		inconclusive: 25.1 µM [rising, single point]
COC(=O)c1ccccc1NC(=O)CSc1nc2ccccc2c(=O)[nH]1		active: 7.94 µM
COC(=O)Cc1c(C)c2ccc(OC(=O)c3ccco3)cc2oc1=O		active: 10 µM
O=C(Nc1nccs1)c1ccc(COc2ccc(Cl)cc2)o1	inconclusive: 23.1%	
Cc1ccc(S(=O)(=O)CCc2nnc(NC(=O)C3CCCO3)s2)cc1 (centres undefined)	inactive	
O=C(NCCO)c1ccc2c(c1)S(=O)(=O)c1ccccc1C2=O		inconclusive: 12.6 µM [rising, single point]
COc1cc(C(=O)Nc2nc3ccccc3[nH]2)cc(OC)c1OC		inconclusive: 0.316 µM [rising, full curve, poor fit]
COCCNC(=O)c1cc2c(-c3ccccc3F)nn(C)c2s1		inconclusive: 12.6 µM [rising, single point]
COc1cc(NC(=O)c2ccc3c(=O)n(Cc4ccco4)c(=S)[nH]c3c2)cc(OC)c1OC		inconclusive: 0.794 µM [rising, full curve]
CCOc1ccc(-c2nc(CSCC(=O)NCCN3CCOCC3)c(C)o2)cc1	inactive	
CC(C)OC(=O)CSc1nc2ccccc2s1	inactive	
CCNc1nc(NC(C)(C)C)nc(SC(C(C)=O)C(C)=O)n1	inconclusive: 22.9%	
